# Assay results as given in the supplement of paper PMC8728848.
# This is one part of the list.
# B1: CVN (Nostoc ellipsosporum), P81180 (protein)
# chain: LGKFSQTCYNSAIQGSVLTSTCERTNGGYNTSSIDLNSVIENVDGSLKWQPSNFIETCRNTQLAGSSELAAECKTRAQQFVSTKINLDDHIANIDGTLKYE
# Assays:
# Assay in all cases: glycan array binding signal (z-score within array); higher = stronger binding
# Conditions in all cases: glycan notation: IUPAC condensed, linker removed
# [1] = target: Gal(b1-4)GlcNAc(b1-2)Man(a1-3)[Gal(b1-4)GlcNAc(b1-2)Man(a1-6)]Man(b1-4)GlcNAc(b1-4)GlcNAc
# Summary of the method: (§1)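 The binding signal is a Z-score computed within each array and averaged over linkers. Arrays of the same protein sequence at different concentrations or buffers were also averaged together. Data originate from 3228 arrays in the Consortium for Functional Glycomics database, kept only where the protein sequence was available.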
# [2] = target: Gal(b1-4)GlcNAc(b1-2)Man(a1-3)[Gal(b1-4)GlcNAc(b1-2)Man(a1-6)]Man(b1-4)GlcNAc(b1-4)[Fuc(a1-6)]GlcNAc
# Summary of the method: as §1
# [3] = target: Gal(b1-4)GlcNAc(b1-2)Man(a1-3)[Gal(b1-4)GlcNAc(b1-2)][GlcNAc(b1-4)]Man(b1-4)GlcNAc(b1-4)GlcNAc
# Summary of the method: as §1
# [4] = target: Gal(b1-4)GlcNAc(b1-2)Man(a1-3)[GlcNAc(b1-2)Man(a1-6)]Man(b1-4)GlcNAc(b1-4)GlcNAc
# Summary of the method: as §1
# [5] = target: Gal(b1-4)GlcNAc(b1-2)Man(a1-3)[Man(a1-6)]Man(b1-4)GlcNAc(b1-4)GlcNAc
# Summary of the method: as §1
# [6] = target: Gal(b1-4)GlcNAc(b1-2)Man(a1-6)Man(b1-4)GlcNAc(b1-4)GlcNAc
# Summary of the method: as §1
# [7] = target: Gal(b1-4)GlcNAc(b1-2)Man(a1-6)[GlcNAc(b1-2)Man(a1-3)]Man(b1-4)GlcNAc(b1-4)GlcNAc
# Summary of the method: as §1
# [8] = target: Gal(b1-4)GlcNAc(b1-2)Man(a1-6)[Man(a1-3)]Man(b1-4)GlcNAc(b1-4)GlcNAc
# Summary of the method: as §1
# [9] = target: Gal(b1-4)GlcNAc(b1-2)[Gal(b1-4)GlcNAc(b1-4)]Man(a1-3)[Gal(b1-4)GlcNAc(b1-2)Man(a1-6)]Man(b1-4)GlcNAc(b1-4)GlcNAc
# Summary of the method: as §1
# [10] = target: Gal(b1-4)GlcNAc(b1-2)[Gal(b1-4)GlcNAc(b1-4)]Man(a1-3)[Gal(b1-4)GlcNAc(b1-2)[Gal(b1-4)GlcNAc(b1-6)]Man(a1-6)]Man(b1-4)GlcNAc(b1-4)GlcNAc
# Summary of the method: as §1
# [11] = target: Gal(b1-4)GlcNAc(b1-2)[Gal(b1-4)GlcNAc(b1-4)]Man(a1-3)[GlcNAc(b1-4)][Gal(b1-4)GlcNAc(b1-2)Man(a1-6)]Man(b1-4)GlcNAc(b1-4)GlcNAc
# Summary of the method: as §1
# [12] = target: Gal(b1-4)GlcNAc(b1-2)[Gal(b1-4)GlcNAc(b1-4)]Man(a1-3)[GlcNAc(b1-4)][Gal(b1-4)GlcNAc(b1-2)[Gal(b1-4)GlcNAc(b1-6)]Man(a1-6)]Man(b1-4)GlcNAc(b1-4)GlcNAc
# Summary of the method: as §1
# [13] = target: Gal(b1-4)GlcNAc(b1-2)[Gal(b1-4)GlcNAc(b1-6)]Man(a1-6)[Gal(b1-4)GlcNAc(b1-2)Man(a1-3)]Man(b1-4)GlcNAc(b1-4)GlcNAc
# Summary of the method: as §1
# [14] = target: Gal(b1-4)GlcNAc(b1-2)[Gal(b1-4)GlcNAc(b1-6)]Man(a1-6)[GlcNAc(b1-4)][Gal(b1-4)GlcNAc(b1-2)Man(a1-3)]Man(b1-4)GlcNAc(b1-4)GlcNAc
# Summary of the method: as §1
# [15] = target: Gal(b1-4)GlcNAc(b1-3)Gal(b1-3)GlcNAc
# Summary of the method: as §1
# [16] = target: Gal(b1-4)GlcNAc(b1-3)Gal(b1-4)Glc
# Summary of the method: as §1
# [17] = target: Gal(b1-4)GlcNAc(b1-3)Gal(b1-4)GlcNAc
# Summary of the method: as §1
# [18] = target: Gal(b1-4)GlcNAc(b1-3)Gal(b1-4)GlcNAc(b1-3)Gal(b1-4)GlcNAc
# Summary of the method: as §1
# [19] = target: Gal(b1-4)GlcNAc(b1-3)Gal(b1-4)[Fuc(a1-3)GlcNAc(b1-6)]Gal(b1-4)Glc
# Summary of the method: as §1
# [20] = target: Gal(b1-4)GlcNAc(b1-3)Gal(b1-4)[Fuc(a1-3)]GlcNAc(b1-3)Gal(b1-4)[Fuc(a1-3)]GlcNAc
# Summary of the method: as §1
# [21] = target: Gal(b1-4)GlcNAc(b1-3)GalNAc
# Summary of the method: as §1
# [22] = target: Gal(b1-4)GlcNAc(b1-3)[Gal(b1-4)GlcNAc(b1-6)]Gal(b1-4)GlcNAc
# Summary of the method: as §1
# [23] = target: Gal(b1-4)GlcNAc(b1-3)[Gal(b1-4)GlcNAc(b1-6)]GalNAc
# Summary of the method: as §1
# [24] = target: Gal(b1-4)GlcNAc(b1-3)[GlcNAc(b1-6)]Gal(b1-4)GlcNAc
# Summary of the method: as §1
# [25] = target: Gal(b1-4)GlcNAc(b1-6)Gal(b1-4)GlcNAc
# Summary of the method: as §1
# [26] = target: Gal(b1-4)GlcNAc(b1-6)GalNAc
# Summary of the method: as §1
# [27] = target: Gal(b1-4)GlcNAc(b1-6)[Gal(b1-3)]GalNAc
# Summary of the method: as §1
# [28] = target: Gal(b1-6)Gal
# Summary of the method: as §1
# [29] = target: Gal3S(b1-3)GalNAc
# Summary of the method: as §1
# [30] = target: Gal3S(b1-3)GlcNAc
# Summary of the method: as §1
# [31] = target: Gal3S(b1-3)[Fuc(a1-4)]GlcNAc
# Summary of the method: as §1
# [32] = target: Gal3S(b1-4)Glc
# Summary of the method: as §1
# [33] = target: Gal3S(b1-4)Glc6S
# Summary of the method: as §1
# [34] = target: Gal3S(b1-4)GlcNAc
# Summary of the method: as §1
# [35] = target: Gal3S(b1-4)GlcNAc6S
# Summary of the method: as §1
# [36] = target: Gal3S(b1-4)[Fuc(a1-3)]Glc
# Summary of the method: as §1
# [37] = target: Gal3S(b1-4)[Fuc(a1-3)]Glc6S
# Summary of the method: as §1
# [38] = target: Gal3S4S(b1-4)GlcNAc
# Summary of the method: as §1
# [39] = target: Gal3S6S(b1-4)GlcNAc
# Summary of the method: as §1
# [40] = target: Gal3S6S(b1-4)GlcNAc6S
# Summary of the method: as §1
# [41] = target: Gal4S(b1-4)GlcNAc
# Summary of the method: as §1
# [42] = target: Gal4S6S(b1-4)GlcNAc
# Summary of the method: as §1
# [43] = target: Gal6S(b1-3)GlcNAc
# Summary of the method: as §1
# [44] = target: Gal6S(b1-3)GlcNAc6S
# Summary of the method: as §1
# [45] = target: Gal6S(b1-4)Glc
# Summary of the method: as §1
binder,measurement,setting,value
B1,glycan array binding signal (z-score),[1],-0.306
same,glycan array binding signal (z-score),[2],0.624
same,glycan array binding signal (z-score),[3],-0.3
same,glycan array binding signal (z-score),[4],-0.303
same,glycan array binding signal (z-score),[5],-0.191
same,glycan array binding signal (z-score),[6],-0.297
same,glycan array binding signal (z-score),[7],-0.304
same,glycan array binding signal (z-score),[8],-0.303
same,glycan array binding signal (z-score),[9],1.2
same,glycan array binding signal (z-score),[10],5.21
same,glycan array binding signal (z-score),[11],-0.296
same,glycan array binding signal (z-score),[12],-0.303
same,glycan array binding signal (z-score),[13],0.182
same,glycan array binding signal (z-score),[14],-0.117
same,glycan array binding signal (z-score),[15],-0.307
same,glycan array binding signal (z-score),[16],-0.284
same,glycan array binding signal (z-score),[17],-0.303
same,glycan array binding signal (z-score),[18],-0.301
same,glycan array binding signal (z-score),[19],-0.297
same,glycan array binding signal (z-score),[20],0.233
same,glycan array binding signal (z-score),[21],-0.304
same,glycan array binding signal (z-score),[22],-0.303
same,glycan array binding signal (z-score),[23],-0.095
same,glycan array binding signal (z-score),[24],-0.306
same,glycan array binding signal (z-score),[25],-0.306
same,glycan array binding signal (z-score),[26],-0.241
same,glycan array binding signal (z-score),[27],-0.302
same,glycan array binding signal (z-score),[28],-0.298
same,glycan array binding signal (z-score),[29],-0.306
same,glycan array binding signal (z-score),[30],-0.291
same,glycan array binding signal (z-score),[31],-0.303
same,glycan array binding signal (z-score),[32],-0.296
same,glycan array binding signal (z-score),[33],-0.305
same,glycan array binding signal (z-score),[34],-0.3
same,glycan array binding signal (z-score),[35],-0.302
same,glycan array binding signal (z-score),[36],-0.297
same,glycan array binding signal (z-score),[37],-0.17
same,glycan array binding signal (z-score),[38],-0.305
same,glycan array binding signal (z-score),[39],-0.305
same,glycan array binding signal (z-score),[40],-0.305
same,glycan array binding signal (z-score),[41],-0.305
same,glycan array binding signal (z-score),[42],-0.3
same,glycan array binding signal (z-score),[43],-0.304
same,glycan array binding signal (z-score),[44],-0.299
same,glycan array binding signal (z-score),[45],-0.299
